Experimental data: the RNAGym collection of RNA variant scans (doi:10.7554/elife.90254)
Read counts are not given, so values of variants with three or more changes are uncertain.

B1: LINE1-mini (parent)
chain: GGCAGAGCUCAACACAGCGUGGCAAAGUGGCUGUGGCUAGACUGCC

Variants of: B1
Test: self-cleavage, relative activity (ratio to wild type); higher = more cleavage; in vitro, sequencing; the parent is a self-cleaving ribozyme

Variant | self-cleavage
C3G U9A U20C G33C | 0.41
G5C U9C G40C | 0.04
A6C G27A U28A U32G C45U | 0.01
G2A U20G C45A | 0.45
A16C G35A A39G U43A | 0.02
G5C C10A G29A | 0.03
G1U C13A C18U A26U C42U | 0.27
G7C U9C G29U | 0.01
G2A G5A U9G A25G | 0.26
A6G A16C G33C C37U | 0.01
G1C G30U C31U A39U | 0
G1U C8G U9C C18G A24U A26G G29U | 0.01
A4G U9G U34A C37U | 0.15
G1A C10U C42G | 0.09
G21U C23A U34G | 0.71
A12U C15G G19A | 0.11
A16C C23G C31A | 0.02
G17U G36U C46A | 0.08
G5C C8U G27A G40C C42A | 0.01
C15G C23A A26U | 0.06
U9A A14C G21C | 0.02
A11G U43G C45U | 0.01
C15U G17A G19C G21U G27U G33A A39C | 0.02
G7A A39G C42U | 0.14

Variant | self-cleavage
U32A A39C C42A C46G | 0.02
C3A C10U A14C C23U G27C | 0.02
A16C A39G C46A | 0.03
C3A C10G C15U G17U G22U C45A | 0.06
A24C G30C G33U U34A G44U | 0.05
C13U G19U C23A G29C | 0.09
C23G U34G C37U G40U | 0.01
A26G G35C U43A G44A C46U | 0.01
C13G U28C G30C U38C | 0.13
G2C C15U C31G U34C A39C | 0.02
G1U A4C C10G A39C | 0.03
G5C A11C A16G U34G | 0.02
A6G G27C U34G | 0.04
G2U A25U G40C | 0.05
A4G A6C C10A G22A G36U | 0.01
G7A G35U C46G | 0.06
U9A C15U A41C | 0.03
U34G C45U C46A | 0.06
G1U G7C A14C G21U | 0.05
G7A U20C C23A A25G G30A | 0.01
C3G C8A G21A G29A G30U U38A G40A | 0.16
G2U G27C A41C U43A | 0
A16G G21C C23A C42G | 0
G17C G21A G22A C31U U32C | 0.39

Variant | self-cleavage
C18G A26U G40A | 0.01
A11U G19A G35C G40U C42G | 0.01
G5U G29A G35U C42A | 0.03
C23A G35U A39G A41U | 0.03
G1U C8G G40U | 0.02
C15G G35U G40A C46U | 0.01
G21C G27U C31U G33A | 0.12
G1A C15U G33U G35U | 0.11
A4U G19U G27C U34C C46G | 0.03
G5U G7U G21C | 0.2
G1A A6C U9A U20A A39G U43G | 0.03
A4U G17U C23A A24C G33U | 0.02
A6U G7U C8G C10U G22C U32G G40C | 0.02
A11U C15G G19A G29U G44C C46A | 0.02
A12G U20C C31U C45A | 0.03
A11G G27C U43C C46U | 0.01
U20C A24G G27U | 0.61
G1A G2C C45G | 0.59
A14U A26C G40C | 0.05
C8G G29U U32C C42U | 0.03
U28C C31G G44U | 0.01
G17U A24U G29U C45A | 0.02
C18U C23A A26G G30A C31A U32C G36A C37U | 0.05
G7A C23U C45A | 0.21

Variant | self-cleavage
U32G U38G G44A | 0.03
A6G G21C G29U | 0.03
C3U A16G U28C U34C | 0.1
A14G A16G G19U A24U A39G | 0.01
A25C G36C A41G C42A | 0.01
A14U C15A C37A | 0.01
G5C A25C G33U G36C | 0.02
G17A G19C C42G | 0.03
G30U U38C G40C C46G | 0.03
C10U U38A A39U | 0.09
C3G G19C G21C C31U | 0.04
A4U C18A G33C A39U C42G | 0.01
G2U C37G U38A | 0.18
G5U U34A C37U | 0.02
G1A C3G C10A C23A C37U C42A | 0
C10A U20C U32A G33A | 0.03
A11G C13U G33A C37U | 0.03
U9A C42G U43G | 0.18
A6G C10A A25G U38C G40U C46A | 0.02
C8U G17A G19U G21U | 0.03
G2U G19A U20G | 0.13
C3U A6U U9G A12U C15A G44U | 0.15
G7A U9C G17C A26G G33A | 0.01
G17C C31G A39G C46G | 0.05

Variant | self-cleavage
C10G A11G U38C A39C | 0.01
A14C U32G A41C U43G | 0.1
G1A G7C C10A U28C G33U | 0.11
C3A A6G C10U G35U C37A | 0.2
A6C A25C C31G | 0.05
G2C G30U G40A | 0.06
G2U C3A C15A C31A C37U G40A | 0.17
C8G C13A U28G C31A U34G | 0.01
U9C C31A U34C C42A C46U | 0
G1U A25C G27U G35U | 0.03
G5U A14C U20A | 0
A26U C31G G35U C46U | 0.02
A6U G44C C45G | 0.24
G2C C37G A39C C42U | 0.04
G29C C31U G44U C45A | 0.04
A6C C23G G30C G40C | 0.02
C8A A12U G21A A26U G40U | 0.72
A6U G7U C10U C15U | 0.02
G1C G5A A25U G27U C46A | 0.02
A6U C10U G17C | 0.1
A6U G21U G27A | 0.16
C8A C10U A11C U28G C31A | 0.01
A11G U28A C31U U43C | 0.01
G17A C18U G33U | 0.15

Variant | self-cleavage
C13U A16C A26C C31A | 0
U20A C37G A41U | 0.03
C3A C8A C15G G19U | 0.09
A6U C8U C18A G44A | 0.09
C8U A11G A39U A41C | 0.01
G1A C15U A16C G22A A25G C37A | 0.07
G27A U28G U34C U43C | 0.03
A12G C31U C42G C45U | 0.01
A6G C8A A12C | 0.02
C10G G19A C37A C46U | 0
A4G C13G C15G C31U | 0.01
G29C U32G A41C | 0.07
G21C U34G C37U U43C C46G | 0.04
A11U C13A C23U C31G | 0.01
G7C G21U A26G | 0
G7A C10U A41C C45G | 0.02
A14G A26U G33U | 0.01
C3U A11C U20G | 0.02
C10A C23A U32C | 0
G2C G21U C23A | 0.19
G1U A6G U38C | 0.02
G2A C3G G27A C46U | 0.27
C13U A16U G19U U20A A25U A26U | 0.06
U9A G27U U34A | 0.26

Variant | self-cleavage
G7C U9A C15A G19U C31A A41C | 0
G1A U32A C42U | 0.17
C10U C15G C37U | 0.05
G2C C13A C37A C42U | 0.39
C13U A16G C45U C46U | 0.02
G2A A6G C8A A16C G29U C46A | 0.13
G5C A11U C46A | 0
C15A G33C A39U | 0.01
G5U U9G A24U A41U | 0.05
G19U G36U U43A | 0.01
C3A A11G C42G | 0.01
G17C U28C G36C G40U | 0.08
C3G A4G G5A C8U | 0.41
C3U C18A U34G | 0.02
U9G G40U A41U | 0.12
G7A U9G C10G G17C U20A G30A G36A | 0.02
G2A G5U G22U G36A | 0.1
C15G C31G A39U | 0.01
G1U C10U A14C G29U C31U | 0.02
C3A A6C C10U | 0.2
G7U C13G G22A G44U | 0.29
C10G A26G G33A G36U | 0.02
U9G C13G A14C U20C C23U U28C G30U C42G | 0.05
